The test system of experiment [1] is CHO cells infected by P. aeruginosa PAK. As to conditions: for decrease in the number of dead/dying CHO cells: flow cytometry, 2 h, infected without compound = 100% lysis; for mean fluorescent intensity of 7-AAD: 2 h infection, background 7.42, infection control 18.2. The procedure: To determine if the small molecule inhibitor, exosin, could modulate the viability of CHO cells during P. aeruginosa infection, apoptotic CHO cells and living CHO cells were distinguished using the exclusion dye 7-AAD. Here, CHO cells were exposed to P. aeruginosa with or without the small molecule inhibitor for 2 hours, and the fraction of apoptotic cells was measured by 7-AAD staining and flow cytometry.
Background: Flow cytometry measures light scatter and fluorescence of single cells or particles in a stream.

The test system is the same in experiment [2]. From the text: […] | […] | […] | […] | […]

Where two headings read alike, the source gives them in different places.

With `CCC1CN(C(=O)Nc2ccc(C)cc2)c2cc(Cl)ccc2O1` (stereo not drawn) [exosin-5138], the “protective effect in CHO cell infection, flow cytometry (in words)” value (“protective effect … flow cytometry (in words)” for short) in experiment [1] is given as “strong protective effect”. Besides, the “decrease in the number of dead/dying CHO cells” value in experiment [1] (20 µM) was determined as 25.20%; in experiment [1] (40 µM), 44.05%; in experiment [1] (80 µM), 60.83%. The “protective effect in CHO cell infection, lysis / LDH assay (in words)” value (“protective effect … lysis / LDH assay (in words)” below) in experiment [2] is given as “showed a protective effect”. The figures for the “reduction in cell lysis (LDH release)” value in experiment [2] (20 µM), in experiment [2] (40 µM) and in experiment [2] (80 µM) were 9.34%, 18.61% and 24.64%, respectively.

As to `CCC1CN(C(=O)Nc2ccc(C)cc2)c2ccccc2O1` (stereo not drawn) [exosin-5316], the “protective effect … flow cytometry (in words)” value in experiment [1] is given as “exerted a protective effect”. The “protective effect … lysis / LDH assay (in words)” value in experiment [2] is “showed a protective effect”. The figures for the “reduction in cell lysis (LDH release)” value in experiment [2] (20 µM), in experiment [2] (40 µM) and in experiment [2] (80 µM) were 7.94%, 12.84% and 15.81%, respectively.

Turning to `CCC1CN(C(=O)Nc2cccc3c2CCCC3)c2ccccc2O1` (stereo not drawn) [exosin-5340], the “protective effect … flow cytometry (in words)” value in experiment [1] is listed as “no protective effect”.

Consider `CCc1ccc(NC(=O)N2CC(CC)Oc3ccccc32)cc1` (stereo not drawn) [exosin], for which the entries for the “mean fluorescent intensity of 7-AAD” value in experiment [1] (20 µM), in experiment [1] (40 µM) and in experiment [1] (80 µM) were 13.4, 11.3 and 10.3, respectively. In addition, the “Dead CHO cells” value in experiment [1] (80 µM, P.a. PAK, MOI 10, 2 h) amounted to 20.31%. The “Living CHO cells” value in experiment [1] (80 µM, P.a. PAK, MOI 10, 2 h) was determined as 79.35%. In addition, in experiment [2], the “protective effect … lysis / LDH assay (in words)” value is reported as “protected CHO cells from lysis”. Also, the “reduction in cell lysis (LDH release)” value in experiment [2] (20 µM) is 6.93%; in experiment [2] (40 µM), 13.92%; in experiment [2] (80 µM) it was 12.90%. Besides, the “effect on Pseudomonas growth (optical density)” value with P. aeruginosa PAK is recorded as “did not affect Pseudomonas growth”.

The values above are taken from PMC2265467 (PLoS Genetics, 2008).
